Data on 56 sequences can be found in the supplement of paper PMC11417369.

± gives the standard deviation of the averaged measurements. The list shows a part of the results.

The subject of this experiment is PfAP2-I AP2 domain 3 (GST-tagged). The experiment in a line: gcPBM binding intensity (ln(normalized median fluorescence intensity)); higher = stronger DNA binding. In short, it runs like this: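 In this array assay, P. falciparum DNA-binding domains with a GST tag, expressed in E. coli, were applied for 1 h to primer-extended double-stranded 36-bp intergenic genomic probes and negative controls on an Agilent 4 × 180k array. Bound protein was visualised with Alexa488 anti-GST antibody at 488 nm. Binding intensity is the highest Masliner-normalised natural-log median intensity across replicate spots of either probe orientation.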
For “TTAAAATTAATTCACCAGTATTAAAATAAAAACGAA [CACACA_negctrl_site1428]”, the “gcPBM binding intensity (ln)” value came to 8.04 ± 0.26.
For “AAATAAAATTTTATGTGTACGCAAAAAGTTGTAAGC [XGTACX_site8911]”, the “gcPBM binding intensity (ln)” value came out at 8.46 ± 0.62.
With “AAAATTTTTCTTAAAGCATGCACAATTAAGAAGACG [TGCATGCA_site883]”, the “gcPBM binding intensity (ln)” value was 8.49 ± 0.73.
Regarding “TTTTTTTTAAGAGATAGTACATAAATATTATAATAT [XGTACX_site4685]”, the “gcPBM binding intensity (ln)” value turned out to be 7.82 ± 0.42.
With “AAGATATATATAGAAAGTACTTATATTTGTATAATT [XGTACX_site8855]”, the “gcPBM binding intensity (ln)” value turned out to be 7.83 ± 0.44.
The value for “ATATTAATATATATGTTTTATTACCATTTTATGTAT [CACACA_negctrl_site1761]” was 7.7 ± 0.59.
The value for “AATAAATAAATATATACACACATATATATATAATAT [CACACA_site921]” was 7.5 ± 0.47; that for “TGAAAAAATATAAAATATAAAATAAAAAATATAAAA [GTGCAC_negctrl_site536]” was 7.43 ± 0.67; that for “TACAATCTAAAATACACACACACAAACATATATTTA [CACACA_site3702]” was 7.68 ± 0.36.
Next, “TCTACAATTATAATTACACACTATAAAAAAGAAAGA [CACACA_site2984]”: 7.96 ± 0.35.
As to “AAAAATAGGAACCAATATCCAACGTGACTTTATAAT [CACACA_negctrl_site1011]”, the “gcPBM binding intensity (ln)” value amounted to 7.68 ± 0.81.
The value for “ATTTTTTTTTTTTTTTTTTTTTTTTTTTGATTTGTG [CACACA_negctrl_site1391]” was 7.53 ± 0.51.
As for “AAAATAATTATGAATTGTACAGGTTTTTTTTTTTTT [XGTACX_site220]”, the “gcPBM binding intensity (ln)” value turned out to be 7.86 ± 0.42.
Next, “AAAAAATTTTTAAGCACACACATAGATAATATATAT [CACACA_site1555]”: 8.78 ± 0.13; “GGAAAAAAAAAAAAAAAACACACGGTACATTCAAAC [CACACA_site2715]”: 7.88 ± 0.78; “ATGTCAAATTTTTGTGCACACATATATAGTTATTAT [CACACA_site2242]”: 10.78 ± 0.028.
Next, “ATAAAAATTGATTATACACACGCGCACCCACAACAA [CACACA_site3536]”: 9.05 ± 0.24; “TATTTATAAATTTACACACACACATGGGAACATAAA [CACACA_site5111]”: 8.18 ± 0.45; “TAAGGATAAATAAAATGAAATGAAATAAATAAATGA [XGTACX_negctrl_site539]”: 7.54 ± 0.57.
The value for “TATATATATCAGCAATGTACACAATGCATATTATAT [XGTACX_site4836]” was 7.92 ± 0.61.
Consider “TTATTTTATTTTAAAAAAAACAATATAAATTCAAAG [GTGCAC_negctrl_site57]”, for which the “gcPBM binding intensity (ln)” value is 7.57 ± 0.3.
Next, “ATTATACAAAATGGTAAGGAAAAGGAAATTTTTTTT [CACACA_negctrl_site1090]”: 7.5 ± 0.76; “CAATATTATATATATACACACATAATCTGTAAAAAC [CACACA_site1068]”: 7.8 ± 0.5; “AAAAAAAAAAATATCACACACACATAAATATAAACA [CACACA_site7138]”: 7.67 ± 0.67.
On to “CATATATATATATATACACACATATATATTTTCTTT [CACACA_site1457]”, for which the “gcPBM binding intensity (ln)” value came out at 8.06 ± 0.47.
For the sequence “AAAGTAGGCTTATATGCACACTTTGAAATATTATAA [CACACA_site5117]”, the “gcPBM binding intensity (ln)” value amounted to 9.31 ± 0.45.
As to “TTTATATGCAATTAAGTGCATAAGAAAAAAAAAGGA [GTGCAC_site9966]”, the “gcPBM binding intensity (ln)” value worked out at 10.5 ± 0.27.
The value for “TTATAAAATAAACTTACACACATGAAATATTATAGT [CACACA_site7000]” was 7.74 ± 0.5.
In the case of “CAAACAAATTGTGAAACACACATATTTATATTTATA [CACACA_site7030]”, the “gcPBM binding intensity (ln)” value is 7.42 ± 0.35.
The value for “TCATAGCACAAAAAATGTACTTATTATTTAATATTT [XGTACX_site5687]” was 7.79 ± 0.35; that for “ATGTGATAATTTAATAGTACATAACAGTTTAACAAT [XGTACX_site5854]” was 7.93 ± 0.76.
As to “TTATAATAAATATTTATTATATATAATATATATTAC [CACACA_negctrl_site1802]”, the “gcPBM binding intensity (ln)” value worked out at 7.58 ± 0.4.
As to “TATATTATATATTTATGTACGTATTTGTAAAAAGAT [XGTACX_site3444]”, the “gcPBM binding intensity (ln)” value amounted to 8.36 ± 0.23.
Turning to “TTTTTTATTAAATATATATAATAATAATAATTTGTA [CACACA_negctrl_site1719]”, the “gcPBM binding intensity (ln)” value is 7.35 ± 0.4.
Next, “TTTGTTTTATGTGGTTGTACACAAATACAATTTAAA [XGTACX_site5156]”: 7.92 ± 0.15; “GTTTCCTTAATATTCACACACATATCTATAATATAT [CACACA_site6959]”: 8.22 ± 0.76.
For ATAATAATTATATCAGTGCGCATATATATTTATTTA, the “gcPBM binding intensity (ln)” value was 9.41 ± 0.72.
With “GATCATAATATTTAAAAGAATATATATAAAAAGGAA [XGTACX_negctrl_site310]”, the “gcPBM binding intensity (ln)” value came out at 7.83 ± 0.54.
Turning to “ATGGTATCTTTTAGAAGTACATCATGATAATAATTT [XGTACX_site5544]”, the “gcPBM binding intensity (ln)” value stood at 7.64 ± 0.45.
For “GTATTAATTTATATATGTACATATGTGATATATATA [XGTACX_site5825]”, the “gcPBM binding intensity (ln)” value turned out to be 8.13 ± 0.31.
Next, “CAAAATTAATAAGTCACACACACATATATAATATAT [CACACA_site798]”: 7.7 ± 0.4; “TATATTTATACAATATGTACATATTATATATATATA [XGTACX_site3098]”: 8.83 ± 0.042.
Next, “TATAAAAATATATGCACACAAATAAAAAATTATATA [CACACA_site3629]”: 9.05 ± 0.42; “ATTTAATAACGGCATGCATGTCCTTATATAAATTTA [TGCATGCA_site1012]”: 7.79 ± 0.69.
For “TGAATTGTAATTTATAATATACGTGGTTTCTACTTA [CACACA_negctrl_site559]”, the “gcPBM binding intensity (ln)” value was 7.33 ± 0.64.
As to “CCTTACCAAATAATATGTACACATTTAATGTTATAT [XGTACX_site7840]”, the “gcPBM binding intensity (ln)” value is 8.14 ± 0.19.
On to “TATTATATATTATATAGTACATATTTATGTAAGAGG [XGTACX_site3099]”, for which the “gcPBM binding intensity (ln)” value amounted to 8.03 ± 0.42.
Regarding “TATCAGTATACAACAACACACATAATGTTTGTCATC [CACACA_site2980]”, the “gcPBM binding intensity (ln)” value came to 7.65 ± 0.48.
Turning to “CACTTAAAAAAAATACGTACACATATATATATATAT [XGTACX_site2054]”, the “gcPBM binding intensity (ln)” value was determined as 9.53 ± 0.32.
The value for “CAAAAATAAATATAAACACACAATAAATAAATAAAT [CACACA_site891]” was 7.79 ± 1; that for “AAAAAAAAAACAAATGCATGTAATATAAGAATTACA [TGCATGCA_site908]” was 7.45 ± 0.6.
Next, “ACTTATAATATTTAGTGTACATATTGTGACTAATAC [XGTACX_site1508]”: 8.07 ± 0.49.
The value for “ATTTTAAAAAATTAATGTACTTAATTAATACTGAAA [XGTACX_site7702]” was 7.59 ± 0.25; that for “TATTTATAAATTTACACACACACATGTGAACATAAA [CACACA_site1909]” was 7.89 ± 0.48; that for “TATCAAAAAAAAAGTAGTACGATAATAGTTTCCCAA [XGTACX_site1812]” was 7.87 ± 0.18.
For “CACCCATACACATACAAACACACATTCTATATATAT [CACACA_site1600]”, the “gcPBM binding intensity (ln)” value was 8.35 ± 0.33.
